# The supplement of paper PMC12645437, “Orthogonal IMiD-Degron Pairs Induce Selective Protein Degradation in Cells” (ACS Chemical Biology, 2025)
# The other results are listed elsewhere or left out.
# Biological target: no compound (DMSO)
# Assay: log2 fold change of degron read counts, EGFP-low vs EGFP+ sorted cells; higher = lower degron-EGFP level without compound (poor expression or instability)
# Details: compound: DMSO control; 18 h
# 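Note: jurkat cells carrying a lentiviral library of mutant zinc finger degrons fused to EGFP plus mCherry, mCherry+ cells FACS sorted, degron abundance counted by next-generation sequencing.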
row,Sequence,log2 fold change of degron read counts
1,FECNQCGACFTQKGNLLRHIKL,-1.7
2,FGCPVCGAAFTQKGNLLRHIKL,0.0937
3,FCCNQCGRMFTQKGNLLRHIKL,0.333
4,FTCDQCGAGFTQKGNLLRHIKL,-1.46
5,FTCEICGAHFTQKGNLLRHIKL,-1.29
6,FVCNICGANFTQKGNLLRHIKL,-0.663
7,FTCEICGHDFTQKGNLLRHIKL,-2.24
8,FCCEVCGATFTQKGNLLRHIKL,-0.976
9,FCCDICGAGFTQKGNLLRHIKL,-0.766
10,FLCEICGHKFTQKGNLLRHIKL,-1.57
11,FVCDVCGAEFTQKGNLLRHIKL,-1.83
12,LACNQCGFNCTQKGNLLRHIKL,0.727
13,FQCPICGHKFTQKGNLLRHIKL,-0.444
14,FTCPICGAKFTQKGNLLRHIKL,-1.43
15,FVCEICGHMFTQKGNLLRHIKL,-1.75
16,LCCEICGFECTQKGNLLRHIKL,-1.59

row,Sequence,log2 fold change of degron read counts
1,FFCDICGAHFTQKGNLLRHIKL,-0.519
2,LGCPICGFWCTQKGNLLRHIKL,1.5
3,FACNVCGAHFTQKGNLLRHIKL,-0.494
4,FECDQCGAHFTQKGNLLRHIKL,-2.37
5,FFCEVCGAQFTQKGNLLRHIKL,-1.68
6,FECDVCGAMFTQKGNLLRHIKL,-1.95
7,FFCPVCGATFTQKGNLLRHIKL,-0.396
8,FECEVCGAKFTQKGNLLRHIKL,-1.73
9,FQCPQCGAWFTQKGNLLRHIKL,-0.124
10,FSCPVCGAEFTQKGNLLRHIKL,-0.789
11,FVCEICGACFTQKGNLLRHIKL,-1.37
12,FECNQCGRNFTQKGNLLRHIKL,-0.705
13,FVCEICGRSFTQKGNLLRHIKL,-2.2
14,FNCDICGAHFTQKGNLLRHIKL,-1.04
15,FWCPVCGAPFTQKGNLLRHIKL,1.13
16,LVCEICGFECTQKGNLLRHIKL,-1.24
